ChEMBL document CHEMBL4888484, “Replenishing the malaria drug discovery pipeline: Screening and hit evaluation of the MMV Hit Generation Library 1 (HGL1) against asexual blood stage Plasmodium falciparum ,using a nano luciferase reporter read-out” (2022)
The whole screen tested about 150,000 compounds, of which about 540 (0.36%) showed an effect of 50% or more. This is one part of the list.

What follows are compounds tested on Plasmodium falciparum (assay: Primary screen in NF54 nanoGlo assay, in single point, at 2uM, 72h; a lower Z score goes with more inhibition). Conditions: timepoint 72 hour.
Format: functional, Erythrocyte

Row | Structure (SMILES) | % Inhibition [%] | Z score
1 | CCc1cc(N2CCc3onc(-c4cccc5ccccc45)c3C2)ncn1 | -7 | 1.18
2 | COC(=O)c1ccc(C(=O)N2CC[C@@H](c3ccccc3)S(=O)(=O)CC2)cc1 | -10 | 1.66
3 | CCc1nn(-c2cccc(C)c2)c(N2CCN(C)CC2)c1CN(CC)Cc1ccco1 | -10 | 1.18
4 | CN1CC[C@H](CN(C)c2cccc(F)c2C#N)C1 | 6 | -0.94
5 | COC[C@@](C)(C#N)NC(=O)c1ccc(F)c(Cl)c1F | -9 | 0.98
6 | COc1cc2nc(N(C)C)c(CN(CCN(C)C)C(C)=O)cc2c(OC)c1OC | -13 | 2.43
7 | COCCCNC(=O)CCc1nc(N2CCCCCC2)c2c(C)noc2n1 | -8 | 1.31
8 | O=C1CN(C(=O)c2cnc(C(F)(F)F)nc2)c2cccc(F)c2N1 | -8 | 1.1
9 | c1ccc(Cn2cccn2)c(CN2CCO[C@]3(CNCCOC3)C2)c1 | -10 | 1.31
10 | Cc1cc(NC(=O)C2CCCCC2C(=O)N2CCCC2)ccn1 (centres undefined) | 5 | -0.71
11 | CC(=O)N1CCc2cc(N3C[C@@H](C(=O)NCc4cccc(F)c4)CC3=O)ccc21 | -6 | 1.08
12 | Cc1cccc(NC(=O)N2CCC[C@H]2c2nc3cc(-c4ccc(F)cc4F)ccc3o2)c1C | -12 | 1.8
13 | C[C@H]1CN(Cc2cc(O)nc(-c3ccccc3)n2)CCN1c1nccn2cnnc12 | -3 | 0.53
14 | CC[C@H](NCc1scnc1C)c1cccc(C#N)c1O | 7 | -1.22
15 | CCOC1CC(c2nc(Cc3ccc(F)cc3C)no2)C1 (centres undefined) | -42 | 4.89
16 | C[C@@]12CN(C(=O)NCCc3ccns3)C[C@@H]1CS(=O)(=O)C2 | -2 | 0.25
17 | CNC(=O)C(C)(C)CNC1C[C@@H]2CCCC[C@H]12 (some centres undefined) | 18 | -2.22
18 | CCn1nc(C)cc1C(=O)N[C@@H](C(C)(C)C)C(F)(F)F | -10 | 2.09
19 | O=C(c1cnc2nccn2c1)N1CCC[C@H]1C(F)(F)F | -14 | 2.78
20 | CCOC(=O)c1nnn(Cc2ccc(C)cc2)c1NC(=O)CN1CCOCC1 | 8 | -1.51
21 | C[C@H](Nc1ncccc1-c1nnc(-c2ccc(Cl)cc2)o1)c1ccccn1 | -45 | 4.31
22 | CCCc1nc(C)c(C(=O)n2nccc2-c2cccc(N)c2)s1 | -18 | 1.94
23 | FC(F)(F)c1cccc(NCn2nc(-c3cccnc3)oc2=S)c1 | -6 | 0.71
24 | CCc1nc(C(=O)N2CCO[C@H](C(=O)O)C2)nn1-c1c(Cl)cccc1Cl | -4 | 0.78
25 | CC(=O)Nc1cnccc1C(=O)N1CC=CCC1 | 5 | -0.78
26 | Cc1cc(F)ccc1C[C@H](C)NC(=O)N1Cc2cn[nH]c2CC(C)(C)C1 | 2 | -0.34

Row | Structure (SMILES) | % Inhibition [%] | Z score
27 | Cc1cc(Cl)ccc1CN(C)CCO | 9 | -0.77
28 | C[C@@H](C(=O)N1CCC(c2nc3ccccc3s2)CC1)c1cncnc1 | -12 | 2.25
29 | CN(Cc1c[nH]nc1-c1ccc(-c2ccccc2)cc1)C[C@H]1COCCO1 | -3 | 0.56
30 | COC(=O)c1cc(C2CC2)nc2c1c(=O)n(CC(=O)Nc1cc(C)ccc1C)c(=O)n2C | 17 | -2.37
31 | O=C([C@H]1C[C@@H]1c1ccc(OC(F)F)cc1)N1CCn2ncnc2C1 | -7 | 1.27
32 | Cn1c(=O)[nH]c2ccc(C(=O)N3CCN4C(=O)NC[C@H]4C3)cc21 | -6 | 1.06
33 | O=C(c1ccnc(C2CC2)n1)N1CCOCc2ccccc21 | -8 | 1.62
34 | O=C(O)c1ccc(CC(=O)N2CCO[C@H](c3cccs3)C2)cc1 | 14 | -1.66
35 | Cc1ccc(CNC(=O)N2CC[C@H](CC(=O)N(C)Cc3ccccc3)C2)cc1 | 35 | -5.02
36 | Cn1nccc1C(=O)Nc1nnc(C2CC2)s1 | -10 | 2.07
37 | Cc1cccc(NC(=O)c2cc(C)nc3c2c(C)nn3-c2ccc(F)cc2)c1 | 37 | -4.14
38 | O=C1N(c2ccc(F)cc2)c2ncccc2S(=O)(=O)N1Cc1ccccc1 | -9 | 0.89
39 | CN(C)C(=O)[C@@H](c1ccccc1)N1CCc2ccc(S(C)(=O)=O)cc2CC1 | -4 | 0.44
40 | CC1CN(S(=O)(=O)c2cccc3nsnc23)CC(C)O1 (centres undefined) | 9 | -1.43
41 | Cc1c([C@@H](C)NC(=O)N[C@H]2CCO[C@@H]2c2cnn(C(C)C)c2)oc2ccccc12 | -3 | 0.48
42 | Cc1nc[nH]c1-c1c(-c2ccccc2)ncn1Cc1cc2cc(F)ccc2[nH]1 | -5 | 0.5
43 | CC(C)C[C@@H](CNC(=O)c1ccc(Cl)cn1)C(=O)O | 1 | -0.14
44 | CN(Cc1ccccc1)[C@H]1CCCN(C(=O)CCc2ccc3c(c2)OCO3)C1 | -14 | 1.62
45 | Cc1ccc(C)c(NS(=O)(=O)c2ccc(OCC(=O)N3CCCC3)cc2)c1 | -12 | 1.66
46 | O=C(c1ccc(F)cn1)N1CCCCCO1 | -11 | 2.25
47 | CC(=O)N1CCN(C(=O)C2C(c3ccc(NC(=O)c4cccs4)cc3)OC(=O)N2Cc2cccc(C)c2)CC1 (centres undefined) | -13 | 1.62
48 | Cc1nc(C(=O)NCc2cnn3c2CCCC3)cs1 | 2 | -0.25
49 | Cc1cc(C)c(CN(Cc2ccccn2)C2CC2)cc1CN1CCN(C)CC1 | -16 | 1.56
50 | CC(C)CC1(CNC(=O)c2ccc(C#N)nc2)CCC1 | 7 | -0.97
51 | CCc1nc2cc(N3CCC[C@H](C(=O)NC4CC4)C3)cnc2nc1CC | 2 | -0.31
52 | COc1ccc([C@H](CNC(=O)c2cccc(S(=O)(=O)N3CCOCC3)c2)N2CCCCC2)cc1 | 2 | -0.35
